# The supplement of paper PMC4967469
# Tests used:
# Assay in all cases: Viability of human cancer cell lines after 72 h of drug (GDSC screen)
# LFM-A13 = compound: C/C(O)=C(\C#N)C(=O)Nc1cc(Br)ccc1Br [LFM-A13]; details: top dose 16 µM; top dose inferred
# Description: (§1)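 Human cancer cell lines in 384-well plates, medium with 10% serum, drug for 72 h over a 256-fold dose range (nine 2-fold or five 4-fold steps up to the top dose). Adherent lines were fixed and stained with the nucleic acid dye Syto60, suspension lines read with resazurin; signal relative to control wells, capped at 0 and 100%. One two-parameter sigmoid per drug and line, fitted in a mixed model over all curves with the slope shared within a line.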
# TW-37 = compound: CC(C)c1ccccc1Cc1cc(C(=O)Nc2ccc(S(=O)(=O)c3ccccc3C(C)(C)C)cc2)c(O)c(O)c1O [TW-37]; details: top dose 5 µM
# Description: as §1
# Bicalutamide = compound: CC(O)(CS(=O)(=O)c1ccc(F)cc1)C(=O)Nc1ccc(C#N)c(C(F)(F)F)c1 [Bicalutamide]; details: top dose inferred
# Description: as §1
# AUY922 = compound: CCNC(=O)c1noc(-c2cc(C(C)C)c(O)cc2O)c1-c1ccc(CN2CCOCC2)cc1 [AUY922]; details: top dose 0.256 µM; top dose inferred
# Description: as §1
# KIN001-270 = compound: Cc1ccc(Nc2cc(-c3cccc(N4C(=O)c5ccccc5C4=O)c3)ncn2)cc1NS(C)(=O)=O [KIN001-270]; details: top dose 20 µM; top dose inferred
# Description: as §1
# Nilotinib = compound: Cc1cn(-c2cc(NC(=O)c3ccc(C)c(Nc4nccc(-c5cccnc5)n4)c3)cc(C(F)(F)F)c2)cn1 [Nilotinib]; details: top dose 2 µM
# Description: as §1
# GNF-2 = compound: NC(=O)c1cccc(-c2cc(Nc3ccc(OC(F)(F)F)cc3)ncn2)c1 [GNF-2]; details: top dose 1.28 µM; top dose inferred
# Description: as §1
# Gemcitabine = compound: Nc1ccn([C@@H]2O[C@H](CO)[C@@H](O)C2(F)F)c(=O)n1 [Gemcitabine]; details: top dose 1.024 µM
# Description: as §1
# T0901317 = compound: O=S(=O)(c1ccccc1)N(CC(F)(F)F)c1ccc(C(O)(C(F)(F)F)C(F)(F)F)cc1 [T0901317]; details: top dose 10.24 µM; top dose inferred
# Description: as §1
# MP470 = compound: S=C(NCc1ccc2c(c1)OCO2)N1CCN(c2ncnc3c2oc2ccccc23)CC1 [MP470]; details: top dose 20 µM; top dose inferred
# Description: as §1
# [1] = top dose 1.024 µM, screen: GDSC drug entry 150
# [2] = top dose 10 µM, screen: GDSC drug entry 1502
Cell Line,AUC (LFM-A13),IC50 (LFM-A13) [nM],AUC (TW-37),IC50 (TW-37) [nM],AUC (Bicalutamide; [1]),IC50 (Bicalutamide; [1]) [nM],AUC (Bicalutamide; [2]),IC50 (Bicalutamide; [2]) [nM],AUC (AUY922),IC50 (AUY922) [nM],AUC (KIN001-270),IC50 (KIN001-270) [nM],AUC (Nilotinib),IC50 (Nilotinib) [nM],AUC (GNF-2),IC50 (GNF-2) [nM],AUC (Gemcitabine),IC50 (Gemcitabine) [nM],AUC (T0901317),IC50 (T0901317) [nM],AUC (MP470),IC50 (MP470) [nM]
"NB10 (neuroblastoma, adherent)",0.986,> 16000,0.473,265,0.987,> 1020,0.971,> 10000,0.759,87.3,0.975,> 20000,0.987,> 2000,0.984,> 1280,0.476,55,0.98,> 10200,0.837,13000
"NB13 (neuroblastoma, adherent)",0.98,> 16000,0.38,152,0.984,> 1020,0.99,> 10000,0.53,19.1,0.87,15000,0.99,> 2000,0.989,> 1280,0.441,44.9,0.983,> 10200,0.948,> 20000
"NB14 (neuroblastoma, adherent)",0.964,> 16000,0.261,68.2,0.987,> 1020,0.937,> 10000,0.703,57.4,0.95,> 20000,0.983,> 2000,0.989,> 1280,0.501,64.4,0.982,> 10200,0.955,> 20000
"NB69 (neuroblastoma, adherent)",0.964,> 16000,0.696,1030,0.987,> 1020,–,–,0.497,15.7,0.948,> 20000,0.986,> 2000,0.99,> 1280,0.261,14.6,0.984,> 10200,0.955,> 20000
"NB(TU)1-10 (neuroblastoma, adherent)",0.993,> 16000,0.697,1020,0.993,> 1020,0.993,> 10000,0.611,30.8,0.975,> 20000,0.988,> 2000,0.993,> 1280,0.68,188,0.993,> 10200,0.903,> 20000
"NB-4 (acute myeloid leukaemia, suspension)",0.975,> 16000,0.562,445,0.991,> 1020,0.991,> 10000,0.491,15.2,0.973,> 20000,0.96,> 2000,0.991,> 1280,0.068,< 4,0.93,> 10200,0.966,> 20000
"NCI-H64 (small cell lung carcinoma, suspension)",0.988,> 16000,0.684,878,0.995,> 1020,–,–,0.572,23.9,0.993,> 20000,0.987,> 2000,0.996,> 1280,0.734,240,0.975,> 10200,0.281,364
"NCI-H69 (small cell lung carcinoma, suspension)",0.977,> 16000,0.756,1880,0.985,> 1020,0.97,> 10000,0.888,> 256,0.959,> 20000,0.986,> 2000,0.986,> 1280,0.806,594,0.981,> 10200,0.723,5820
"NCI-H82 (small cell lung carcinoma, suspension)",0.983,> 16000,0.545,411,0.987,> 1020,0.968,> 10000,0.988,> 256,0.981,> 20000,0.941,> 2000,0.987,> 1280,0.799,462,0.981,> 10200,0.492,1190
"NCI-H187 (small cell lung carcinoma, suspension)",0.988,> 16000,0.615,667,0.977,> 1020,0.983,> 10000,0.968,> 256,0.97,> 20000,0.988,> 2000,0.967,> 1280,0.937,> 1020,0.985,> 10200,0.952,> 20000
"NCI-H209 (small cell lung carcinoma, suspension)",0.986,> 16000,0.561,464,0.975,> 1020,0.966,> 10000,0.965,> 256,0.976,> 20000,0.926,> 2000,0.964,> 1280,0.455,47.8,0.963,> 10200,0.883,> 20000
"NCI-H211 (small cell lung carcinoma, adherent)",0.965,> 16000,0.916,> 5000,0.983,> 1020,0.97,> 10000,0.528,19,0.986,> 20000,0.95,> 2000,0.98,> 1280,0.255,13,0.988,> 10200,0.78,8010
"NCI-H226 (lung squamous cell carcinoma, adherent)",0.979,> 16000,0.792,2390,0.987,> 1020,0.986,> 10000,0.616,33.9,0.98,> 20000,0.981,> 2000,0.987,> 1280,0.746,338,0.956,> 10200,0.858,17800
"NCI-H345 (small cell lung carcinoma, suspension)",0.99,> 16000,0.758,1820,0.99,> 1020,0.987,> 10000,0.988,> 256,0.982,> 20000,0.99,> 2000,0.973,> 1280,0.99,> 1020,0.99,> 10200,0.892,> 20000
"NCI-H446 (small cell lung carcinoma, semi-adherent)",0.972,> 16000,0.737,1570,0.985,> 1020,0.964,> 10000,0.835,187,0.889,> 20000,0.985,> 2000,0.98,> 1280,0.914,> 1020,0.985,> 10200,0.971,> 20000
"NCI-H524 (small cell lung carcinoma, suspension)",0.991,> 16000,0.492,299,0.99,> 1020,0.99,> 10000,0.988,> 256,0.991,> 20000,0.98,> 2000,0.977,> 1280,0.956,> 1020,0.99,> 10200,0.945,> 20000
"NCI-H526 (small cell lung carcinoma, suspension)",0.962,> 16000,0.59,543,0.989,> 1020,0.988,> 10000,0.806,124,0.959,> 20000,0.981,> 2000,0.981,> 1280,0.557,90.6,0.961,> 10200,0.898,> 20000
"NCI-H716 (large intestine, suspension)",0.979,> 16000,0.624,750,0.982,> 1020,0.959,> 10000,0.858,> 256,0.972,> 20000,0.745,769,0.981,> 1280,0.978,> 1020,0.976,> 10200,0.98,> 20000
"NCI-H720 (lung carcinoid, suspension)",0.992,> 16000,0.538,393,0.992,> 1020,0.988,> 10000,0.967,> 256,0.987,> 20000,0.985,> 2000,0.946,> 1280,0.986,> 1020,0.978,> 10200,0.981,> 20000
"NCI-H747 (large intestine, adherent)",0.961,> 16000,0.511,336,0.979,> 1020,0.963,> 10000,0.499,15.9,0.976,> 20000,0.981,> 2000,0.894,> 1280,0.435,40.8,0.937,> 10200,0.455,918
"NCI-H847 (small cell lung carcinoma, adherent)",0.992,> 16000,0.404,180,0.993,> 1020,0.992,> 10000,0.788,89.9,0.937,> 20000,0.993,> 2000,0.993,> 1280,0.437,44.5,0.9,8670,0.848,10800
"NCI-H1092 (small cell lung carcinoma, suspension)",0.99,> 16000,0.692,1090,0.99,> 1020,0.985,> 10000,0.819,147,0.965,> 20000,0.977,> 2000,0.98,> 1280,0.933,> 1020,0.988,> 10200,0.881,> 20000
"NCI-H1155 (large cell lung carcinoma, suspension)",0.993,> 16000,0.469,261,0.991,> 1020,0.993,> 10000,0.92,> 256,0.977,> 20000,0.969,> 2000,0.993,> 1280,0.67,173,0.988,> 10200,0.921,> 20000

# The IC50 comes from the fitted curve, where viability falls to half of the control; where the fit passes the top or lowest dose, that dose stands as a limit. For AUC the same curve is integrated over the 256-fold range of doses and scaled to a fraction: 1 means no effect, lower means more sensitive. For some of these results: A top dose marked as inferred was derived from the fitted curves, not read from the paper. For some of these results: Where an entry number is given, a second screen of the drug exists; the two often differ.
